According to PubChem BioAssay AID2546 (National Center for Advancing Translational Sciences (NCATS), 2010):
Where “and” joins values, the source holds several entries; their conditions need not be identical. Equal values may be shown once. The campaign covered roughly 310,000 compounds. About 11,000 (3.5%) were called active. This list was built around the results that the source calls inconclusive (neither active nor inactive); the mix of calls is not that of the screen. Calls follow the shape of the dose curve; as a rule, active = well fitted inhibition curve with a large enough effect; inconclusive = small, poorly fitted or top-dose-only effect, or effect the other way; inactive = flat fitted curve, though single readings scatter. Potencies beside an inconclusive call are fits to weak or partial responses and may not hold up.

Experiment: VP16 counterscreen qHTS for inhibitors of ROR gamma transcriptional activity;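 also: Gal4-VP16 expression switched on by copper sulfate through the metallothionein promoter; nearly all actives have a fitted effect of over 50% in size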
Settings: Drosophila S2 Gal4-VP16 UAS-luciferase, luminescence, 20 h; activity, negative = inhibition: at 53.6 µM (top of the series)
% is scaled to controls: 0 for no effect and ±100 for the full control effect; potency is read from the fitted curve at half-maximal effect; tags tell the direction and shape of the fitted curve.

SMILES | Potency | activity, negative = inhibition
Cc1ccsc1/C=N/NC(=O)Cn1nc(C)c([N+](=O)[O-])c1C | inconclusive: 35.5 µM [inhibitor, single point] | –
CCCOc1ccc(-c2cn3ccccc3n2)cc1 | inconclusive: 12.6 µM [inhibitor, partial curve, poor fit] | –
NS(=O)(=O)c1cccc(NS(=O)(=O)c2ccc(/C=C/C(=O)OCC(=O)c3ccc(Br)cc3)cc2)c1 | inconclusive: 25.1 µM [inhibitor, single point] | –
O=C(NCC1CCCCC1)c1cccc(-c2ccc(O)cc2)c1 | inconclusive: 35.5 µM [inhibitor, single point] | –
Cc1cccc2sc(NNC(=O)c3cc(-c4cccs4)nc4ccccc34)nc12 | active: 17.8 µM | –
CCCCn1c(=S)[nH]c2c(oc3ccc(Cl)cc32)c1=O | inconclusive: 2.24 µM [inhibitor, partial curve] | –
COc1ccc(S(=O)(=O)Nc2ccc3c(c2)OCCO3)cc1Cl | inconclusive: 25.1 µM [inhibitor, single point] | –
O=C(NNC(=S)Nc1ccccc1)c1ccc(O)cc1 | inconclusive: 14.1 µM [inhibitor, partial curve] | –
CN1CCc2c(sc(NC(=O)c3ccc([N+](=O)[O-])o3)c2C(N)=O)C1 | inconclusive: 22.4 µM [inhibitor, single point] | –
CCn1c(=O)c(C(=O)NNC(=O)c2cccc(Cl)c2)c(O)c2ccccc21 | inconclusive: 22.4 µM [inhibitor, single point] | –
CC1CCN(c2nc(-c3ccncc3)nc3ccccc23)CC1 | inconclusive: 31.6 µM [inhibitor, single point] | –
Cc1ccc(Cc2cnc(NC(=O)CN3CCOCC3)s2)cc1Cl | inconclusive: 35.5 µM [inhibitor, single point] | –
Cn1nc(/C=C/c2ccccc2)ccc1=O | – | inactive: 3.44%
c1ccc(CCn2cnc3ccccc32)cc1 | inconclusive: 5.62 µM [activator, partial curve] | –
CCCCN1C(=O)c2ccc(C(=O)Nc3ccc(C)c(S(=O)(=O)N(C)C)c3)cc2C1=O | inconclusive: 14.1 µM [inhibitor, single point] | –
CC(C)(C)c1ccc(N2C[C@@H](COc3ccc(C(=O)O)cc3)CC2=O)cc1 | – | inactive: -6.92%
COc1ccc(C(CCN2CCCCC2)c2c(OC)cc(OC)c3c(-c4ccccc4)cc(=O)oc23)cc1 (configuration not stated) | inconclusive: 11.2 µM [inhibitor, partial curve] and inconclusive: 35.5 µM [inhibitor, single point] | –
Cc1cccc(NC(=S)NCCc2ccc(Cl)cc2)c1C | active: 7.08 µM | –
COC(=O)c1cc(OC)c(OC)cc1NC(=O)Cc1cccs1 | inconclusive: 6.31 µM [inhibitor, single point] | –
CCc1ccc(CN(C)C(=O)c2cc(COc3cccc4cnccc34)on2)cc1 | inconclusive: 35.5 µM [inhibitor, single point] | –
O=C(NOC(=O)c1cc(Br)ccc1Cl)c1cccs1 | inconclusive: 22.4 µM [inhibitor, single point] | –

SMILES | Potency | activity, negative = inhibition
N#C/C(C(=O)NCCc1ccccc1)=C1/N=C(NC(=O)c2cccs2)c2ccccc21 | – | inactive: -15.2%
Cc1ncoc1C(=O)N1CCCC(C(=O)Nc2cccc(-c3ccc(F)cc3)c2)C1 (configuration not stated) | inconclusive: 20 µM [inhibitor, single point] | –
CC1(C)CC(=O)c2cc(C(=O)NC3CCSC3=O)c(=O)n(-c3ccccc3)c2C1 (configuration not stated) | – | inactive: 1.54%
CCOC(=O)C1=C(C)N(C)C(=S)NC1c1cc(OC)ccc1OC (configuration not stated) | inconclusive: 22.4 µM [inhibitor, single point] | –
COC(=O)Cc1nnc(SCC(=O)Nc2ccccc2)c2ccccc12 | – | inactive: -10.9%
CN(C)c1ccc(C=Nc2ccc(N(C)C)cc2)cc1 | inconclusive: 15.8 µM [inhibitor, single point] | –
CCCOP(=O)(c1ccc(N(C)C)cc1)C(O)c1ccccc1OC (configuration not stated) | – | inactive: 1.29%
[O-][N+]1=c2ccc(Nc3ccccc3)cc2=NC12CCCCC2 | active: 12.6 µM | –
COc1cc(NC(=O)C2=C(N3CCOCC3)/C(=C/c3ccc(Cl)cc3)CC2)cc(OC)c1OC | inconclusive: 12.6 µM [inhibitor, partial curve] | –
Cc1cccnc1NC(=O)c1ccc(Cl)c(S(=O)(=O)N2CCCCCC2)c1 | inconclusive: 35.5 µM [inhibitor, single point] | –
N#C/C(=C\c1coc2ccccc2c1=O)C(N)=S | inconclusive: 28.2 µM [inhibitor, single point] | –
N#Cc1c(Nc2ccc(Cl)cc2)s[nH]c1=O | inconclusive: 35.5 µM [inhibitor, single point] | –
O=C(N/N=C/c1cc([N+](=O)[O-])ccc1O)c1cccc(NC(=O)c2cccc(Cl)c2)c1 | inconclusive: 5.62 µM [inhibitor, single point] | –
Cc1cc(C(F)(F)F)c(C#N)c(SCC(=O)Nc2nc3cc(Br)ccc3s2)n1 | inconclusive: 5.62 µM [activator, single point] | –
O=C(NCCc1nc2ccccc2[nH]1)/C(=C/c1ccc2c(c1)OCO2)NC(=O)c1ccc(Cl)cc1Cl | inconclusive: 35.5 µM [inhibitor, single point] | –
O=C(Oc1ccccc1C(=S)N1CCOCC1)c1ccc([N+](=O)[O-])cc1[N+](=O)[O-] | inconclusive: 35.5 µM [inhibitor, single point] | –
C/C(CC1CC2=C(CC1(C)C)C(C)(C)CCC2)=N\NC(N)=S (configuration not stated) | active: 3.16 µM | –
CC(C)Cn1c(/C=C/c2ccco2)nc2ccccc21 | inconclusive: 17.8 µM [inhibitor, single point] | –
COc1nc(OC)nc(N2CCC(C(=O)NCC3CCCCC3)CC2)n1 | – | inactive: -12.4%
O=C(Nc1nc2ccccc2s1)c1ccc(N2CCCCC2)c([N+](=O)[O-])c1 | inconclusive: 35.5 µM [inhibitor, single point] | –
O=C(Oc1c(Cl)cc(Cl)c2cccnc12)c1ccco1 | inconclusive: 89.1 µM [inhibitor, partial curve, poor fit] | –
